Test results reported in PubChem BioAssay AID1508624 (National Center for Advancing Translational Sciences (NCATS), 2021).
Screen size: about 48,000 compounds; about 120 (0.25%) were called active. About 4% were inconclusive and are not listed. Calls follow the shape of the dose curve; as a rule, active = well fitted activation curve with a large enough effect; inconclusive = small, poorly fitted or top-dose-only effect, or another doubt; inactive = no such curve, though single readings can be large or run the other way. This is one part of the list.

experiment: Primary qHTS for Identification of Small Molecule Activators of Huntingtin-Antisense Promoter Activity; details: HEK293 HTT-AS promoter firefly luciferase reporter (activity 0% = vehicle and -100% = no light), 24 h; series mostly up to 57.5 µM; activity change, positive = activation: at the top concentration; also: nearly all actives have a fitted effect of over 55% in size
Description: Assay Provider: Russell L. Margolis M.D.
Department Neurology, Johns Hopkins University School of Medicine, Baltimore, MD
Huntington's Disease (HD) is a neurodegenerative disorder caused by a CAG repeat expansion in exon 1 of huntingtin (HTT). While there are currently no disease-modifying treatments for HD, recent efforts have focused on development of nucleotide-based therapeutics to lower HTT expression. As an alternative to siRNA or oligonucleotide methods, we hypothesized that suppression of HTT expression might be accomplished by small molecules that either (1) directly decrease HTT expression by suppressing HTT promoter activity or (2) indirectly decrease HTT expression by increasing the promoter activity of HTT-AS, the gene antisense to HTT that appears to inhibit expression of HTT.
We developed and employed a high throughput screen for modifiers of HTT and HTT-AS promoter activity using luminescent reporter HEK293 cells; of the 52,041 compounds tested, we identified 898 replicable hits. We used a rigorous stepwise approach to assess compound toxicity and the capacity of the compounds to specifically lower huntingtin protein in 5 different cell lines, including HEK293 cells, HD lymphoblastoid cells, mouse primary neurons, HD iPSCs differentiated into cortical-like neurons, and HD hESCs. We found no compounds which were able to lower huntingtin without lowering cell viability in all assays, though the potential efficacy of a few compounds at non-toxic doses could not be excluded.
SEQUENCE No. (1, 2, 3, etc.); […] (e.g., Cells, Incubation, Reagent, etc.); VALUE and DESCRIPTION.
1; Reagent; 4 uL; 2,500 Hek293 luciferase reporter cells per wells
3; Compound; 23 nL; Control inhibitor / compound library
5; Reagent; 2.5 uL; Firefly Luc reagent; Dual-Glo Luciferase Reporter Assay System (Promega)
6; Time; 10 min; room temperature incubation
7; Detection; Luminescence; FLuc
NOTES (numbers refer to sequence above)
1; High-throughput screening, measuring luminescence from a Hek293 luciferase reporter, was performed in 1,536 well white-walled tissue-culture treated plates. 2,500 cells were plated in 4 µL of Opti-MEM per well using a Multidrop Combi Reagent Dispenser (ThermoFisher).
2; Assay plates were cultured for 24 hours.
3; Control inhibitor (PTC124; final concentration of 50 uM) and compound library (at final concentrations of 460 nM - 57.5 uM) were added to the assay plate using the Kalypsis Pintool Robotic System equipped with 1536 pinheads.
4; Cells were then incubated for 24 hours at 37 degrees C prior to luminescence measurements.
5; In all cases, luminescence was measured using the Dual-Glo Luciferase Reporter Assay System (Promega) following the manufacturer's instructions.
6; Room temperature incubation.
7; Luminescence signal was obtained using the PerkinElmer ViewLux plate reader. Results were normalized to vehicle control (0% activity) and zero RLU (-100% activity).

Activity change, positive = activation, inactive:
CCOC(=O)c1c(C)oc2ccc(N(C(=O)c3ccncc3)S(=O)(=O)c3ccc(Br)cc3)cc12 -33.4%
CC1=C(c2ccc(C(C)C)cc2)S(=O)(=O)NC1=NCc1ccccc1Br -17.1%
Cc1cccc(NC(=O)Cn2c(=O)nc(-c3ccccc3)c3ccccc32)c1C -9.51%
CNC(=O)C1CCC(Cn2c(=O)c3sccc3n(CC(=O)Nc3ccc(C)c(F)c3)c2=O)CC1 (stereo not given) -25.1%
COc1ccc(C)cc1NC(=O)C1CCCN(S(=O)(=O)c2ccc3[nH]c(=O)ccc3c2)C1 (stereo not given) -30.5%
COc1cc(NC(=O)CN2C(=O)CN(C)C(=O)c3ccccc32)cc(OC)c1OC -8.75%
CCCCCCCCCC(=O)N[C@@H](Cc1c[nH]c2ccccc12)C(=O)N[C@H](CC(N)=O)C(=O)N[C@@H](CC(=O)O)C(=O)N[C@@H]1C(=O)NCC(=O)N[C@@H](CCCN)C(=O)N[C@@H](CC(=O)O)C(=O)N[C@H](C)C(=O)N[C@@H](CC(=O)O)C(=O)NCC(=O)N[C@H](CO)C(=O)N[C@@H]([C@@H](C)CC(=O)O)C(=O)N[C@@H](CC(=O)c2ccccc2N)C(=O)O[C@@H]1C -7.05%
CCOc1ccc(CCNC(=O)Cn2ncc3c(=O)oc4ccc(C)cc4c32)cc1 -8.3%
CCOC(=O)c1c(C)[nH]c(C)c1S(=O)(=O)N1CCC(C(=O)Nc2ccc(C)cn2)CC1 -11.1%
CCn1c2ccccc2c2cc(NC(=O)COc3cccc(C)c3)ccc21 -8.07%
CCOc1cc2[nH]c(=O)n(CCCC(=O)N3CCN(c4ccc(OC)cc4)CC3)c(=O)c2cc1OCC -22%
CSc1ccc(CCNC(=O)CN2C(=O)c3cccnc3Oc3ccc(C)cc32)cc1 -15.1%
Cc1ccc2c(=O)cc(C(=O)N(Cc3ccc(N(C)C)cc3)C3CCS(=O)(=O)C3)oc2c1 (stereo not given) 7.23%
CCCN1CCN(CCCNC(=O)Cn2nc(CC)n3c(cc4occc43)c2=O)CC1 -17.1%
Cc1cc(NC(=O)N(C)CCc2c(C)nn(C)c2C)ccc1Br -3.14%
N=c1n(CCN2CCCCC2)c2ccccc2n1CC(O)COc1ccc(Cl)cc1Cl (stereo not given) -46.3%
CCc1cccc(C)c1NC(=O)CSc1nc2ccccc2nc1N1CCOCC1 0%
CC1(C)O[C@H]2[C@@H](O1)[C@@H](C(=O)Nc1ccc(F)c(F)c1)O[C@@H]1OC(C)(C)O[C@@H]12 -6.09%
COc1ccc(Cn2c(SCc3ccc(C(=O)NCc4cccs4)cc3)nc3cccnc32)cc1 -29.8%
Cc1cc(F)ccc1NS(=O)(=O)c1c(C)nc2scc(C)n2c1=O -21.5%
Cc1ccc(S(=O)(=O)N(CCc2ccccc2)CC(=O)Nc2cc(C)ccc2C)cc1 -19.1%
CCOC(=O)c1cc(-c2ccc(C)cc2)n(CCC(=O)Nc2ccc(C(C)C)cc2)c1C -28.6%
COc1cc(C2C(C(=O)Nc3ccc(C)cc3C)=C(C)Nc3nc4ccccc4n32)cc(OC)c1OC (stereo not given) -5.21%
Cc1cccc(NC(=O)CS(=O)(=O)c2nc(-c3ccccc3)cn2-c2cccc(Cl)c2)c1C 2.03%
Cc1cccc(NC(=O)Cn2nnc(C(=O)Nc3ccccc3Br)c2N)c1C -1.51%
Cn1cc(C(=O)NCc2ccccc2)c(=O)c2cc(S(=O)(=O)N3CCOCC3)ccc21 -4.85%
CCOc1ccccc1NC(=O)c1nc2nc(C)cc(C(F)F)n2n1 -6.24%
COc1cccc(-c2nc(CS(=O)(=O)CC(=O)Nc3c(C)cc(C)cc3C)c(C)o2)c1 -38.6%
COc1cccc(N2CCN(C(=O)C3CCN(S(=O)(=O)c4c(C)noc4C)CC3)CC2)c1 -14%
CCOC(=O)CN1C(=O)c2cccnc2Oc2ccccc21 -8.71%
O=C(CCCn1c(=O)c2sccc2n(Cc2cccc(Cl)c2)c1=O)NCc1ccc2c(c1)OCO2 -19.3%
Cc1cc(C)cc(NC(=O)CSCc2cc(=O)c3ccc(C)c(C)c3[nH]2)c1 -8.83%
CNS(=O)(=O)c1cn(CC(=O)N2CCN(c3cc(C)ccc3C)CC2)cc1S(=O)(=O)NC -8.65%
O=c1cc(-c2ccccc2)n2c(SCc3cccc([N+](=O)[O-])c3)nnc2[nH]1 -10.8%
Fc1ccc(Cn2c(-c3cccc(Br)c3)nc3ccccc32)cc1 -28.2%
CCOc1ccc(CCNC(=O)Cn2nc(CC)n3c(cc4sccc43)c2=O)cc1 -15.2%
Cc1nn2c(C)c(C(=O)NCC(C)c3ccccc3)cnc2c1-c1ccccc1 (stereo not given) -16.4%
O=C(NCCc1nc2ccccc2n1CCCOc1ccc(Cl)cc1)C1CCCCC1 -46.9%
O=C(Nc1c2c(nn1-c1ccc(Cl)cc1)CS(=O)(=O)C2)c1ccccc1F -15%
COc1ccc(C2NC(=O)N(C)C3=C2C(=O)N(c2ccc(F)cc2)C3)cc1 (stereo not given) -17.8%
Cc1cccc(NC(=O)CSc2nccn2-c2cccc(Cl)c2)c1C -17.3%
CCC(C(=O)NCc1ccccc1Cl)n1nc(C)c2sc3ccccc3c2c1=O (stereo not given) -4.43%
Cc1ccc(NC(=O)c2sc(-n3nc(C)c(Cc4ccc5c(c4)OCO5)c3C)nc2C)cc1C -18.5%
CSc1ccc(/C=C2/C(C)=C(CC(=O)O)c3cc(F)ccc32)cc1 -0.644%
CCOc1cc(C2c3c(-c4ccccc4O)n[nH]c3C(=O)N2Cc2cccnc2)ccc1O (stereo not given) 5.51%
CCOC(=O)c1ccc(C#Cc2ccc3c(c2)C(C)(C)CCS3)nc1 -4.31%
Cc1ccc(C)c(CN2C(=O)c3ccccc3S(=O)(=O)c3ccc(C(=O)N4CCN(c5ccccc5F)CC4)cc32)c1 -10.5%
COc1ccc(CNC(=O)CCc2nnc3n(CC(C)C)c(=O)c4ccccc4n23)cc1 -6.89%
COc1ccc(C)cc1NS(=O)(=O)c1ccc2[nH]c(=O)c(=O)[nH]c2c1 -9.14%
CCn1ccc2cc(S(=O)(=O)N3CCCN(C(=O)NCCOC)CC3)ccc21 2.93%
CCS(=O)(=O)N1CCc2cc(C(=O)Nc3cc(C(F)(F)F)ccc3Cl)ccc21 -21.6%
CCOC(=O)C1=C(CN2CCN(c3cc(C)ccc3C)CC2)NC(=O)NC1c1ccc(Cl)cc1 (stereo not given) -69.8%
COc1cccc(NC(=O)Cn2c(=O)n(CCCCC(=O)NCCc3ccccc3)c(=O)c3ccccc32)c1 -23.4%
CCOc1cc(C(=O)N2CCC(c3ccncc3)CC2)cc(OCC)c1OCC -17.4%
COc1ccc(Cl)cc1NC(=O)CSc1nc(-c2ccco2)cc(C(F)(F)F)n1 -29.6%
